Results reported in the supplement of paper PMC4967469.

What was measured:
Experiment in all cases: Viability of human cancer cell lines after 72 h of drug (GDSC screen)
[1] = compound: CC(=O)Nc1cccc(-n2c(=O)n(C3CC3)c(=O)c3c(Nc4ccc(I)cc4F)n(C)c(=O)c(C)c32)c1 [Trametinib]; details: top dose 1 µM
Protocol: (§1)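 Human cancer cell lines in 384-well plates, medium with 10% serum, drug for 72 h over a 256-fold dose range (nine 2-fold or five 4-fold steps up to the top dose). Adherent lines were fixed and stained with the nucleic acid dye Syto60, suspension lines read with resazurin; signal relative to control wells, capped at 0 and 100%. One two-parameter sigmoid per drug and line, fitted in a mixed model over all curves with the slope shared within a line.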

[2] = compound: Nc1ccccc1NC(=O)c1ccc(CNC(=O)OCc2cccnc2)cc1 [MS-275]; details: top dose 5 µM; top dose inferred
Protocol: as §1

[3] = compound: CCN1CCN(Cc2ccc(NC(=O)c3ccc(C)c(/C=C/c4cnc5[nH]ccc5c4OC)c3)cc2C(F)(F)F)CC1 [HG-6-64-1]; details: top dose 5.12 µM; top dose inferred
Protocol: as §1

[4] = compound: CCc1cncnc1N1CCN(Cc2nc3ccc(C(F)(F)F)cc3[nH]2)CC1 [PF-4708671]; details: top dose 10 µM; top dose inferred
Protocol: as §1

[5] = compound: O=C(NC(COc1ccc2[nH]c(=O)[nH]c2c1)c1ccccc1)c1cccn(Cc2ccc(F)c(F)c2)c1=O [KIN001-244]; details: top dose 20 µM; top dose inferred
Protocol: as §1

[6] = compound: CCNC(=O)C[C@@H]1N=C(c2ccc(Cl)cc2)c2cc(OC)ccc2-n2c(C)nnc21 [I-BET-762]; details: top dose 20 µM; top dose inferred
Protocol: as §1

[7] = compound: COc1cc2nccc(Oc3ccc(NC(=O)Nc4cc(C)on4)c(Cl)c3)c2cc1OC [AV-951]; details: top dose 0.128 µM; top dose inferred
Protocol: as §1

Row | Cell Line | AUC [1] | IC50 [1] [µM] | AUC [2] | IC50 [2] [µM] | AUC [3] | IC50 [3] [µM] | AUC [4] | IC50 [4] [µM] | AUC [5] | IC50 [5] [µM] | AUC [6] | IC50 [6] [µM] | AUC [7] | IC50 [7] [µM]
1 | NCI-H2081 (small cell lung carcinoma, suspension) | 0.985 | > 1 | 0.919 | > 5 | 0.965 | > 5.12 | 0.931 | > 10 | 0.93 | > 20 | 0.978 | > 20 | 0.989 | > 0.128
2 | NCI-H2135 (non-small cell lung carcinoma, adherent) | 0.99 | > 1 | 0.842 | 3.35 | 0.948 | > 5.12 | 0.863 | 8.24 | 0.783 | 8.13 | 0.589 | 2.17 | 0.99 | > 0.128
3 | NCI-H2141 (small cell lung carcinoma, suspension) | 0.99 | > 1 | 0.856 | 3.85 | 0.985 | > 5.12 | 0.988 | > 10 | 0.946 | > 20 | 0.955 | > 20 | 0.986 | > 0.128
4 | NCI-H2227 (small cell lung carcinoma, semi-adherent) | 0.906 | > 1 | 0.823 | 3.48 | 0.97 | > 5.12 | 0.985 | > 10 | 0.865 | > 20 | 0.604 | 2.52 | 0.978 | > 0.128
5 | NCI-SNU-1 (stomach, suspension) | 0.911 | > 1 | 0.903 | > 5 | 0.696 | 1.16 | 0.922 | > 10 | 0.824 | 12.4 | 0.795 | 9.65 | 0.981 | > 0.128
6 | NCI-SNU-5 (stomach, suspension) | 0.76 | 0.356 | 0.844 | 3.64 | 0.988 | > 5.12 | 0.987 | > 10 | 0.937 | > 20 | 0.989 | > 20 | 0.989 | > 0.128
7 | NCI-SNU-16 (stomach, suspension) | 0.954 | > 1 | 0.867 | 3.67 | 0.949 | > 5.12 | 0.911 | > 10 | 0.974 | > 20 | 0.991 | > 20 | 0.991 | > 0.128
8 | NKM-1 (acute myeloid leukaemia, suspension) | 0.441 | 0.043 | 0.385 | 0.149 | 0.287 | 0.0783 | 0.982 | > 10 | 0.428 | 0.787 | 0.611 | 2.55 | 0.923 | > 0.128
9 | NMC-G1 (glioma, adherent) | 0.689 | 0.241 | 0.545 | 0.428 | 0.698 | 1.32 | 0.962 | > 10 | 0.844 | 19.5 | 0.963 | > 20 | 0.98 | > 0.128
10 | NTERA-2 cl.D1 (testis, adherent) | 0.739 | 0.3 | 0.445 | 0.222 | 0.389 | 0.159 | 0.967 | > 10 | 0.919 | > 20 | 0.803 | 9.83 | 0.982 | > 0.128
11 | NU-DUL-1 (B-cell lymphoma, suspension) | 0.992 | > 1 | 0.492 | 0.299 | 0.439 | 0.225 | 0.991 | > 10 | 0.499 | 1.24 | 0.522 | 1.42 | 0.99 | > 0.128
12 | OCI-AML2 (acute myeloid leukaemia, suspension) | 0.011 | < 0.00391 | 0.719 | 1.08 | 0.895 | 3.46 | 0.973 | > 10 | 0.333 | 0.489 | 0.42 | 0.798 | 0.994 | > 0.128
13 | OCI-AML5 (acute myeloid leukaemia, suspension) | 0.593 | 0.11 | 0.567 | 0.468 | 0.649 | 0.796 | 0.989 | > 10 | 0.795 | 8.36 | 0.508 | 1.31 | 0.963 | > 0.128
14 | OCI-LY-19 (B-cell lymphoma, suspension) | 0.789 | 0.404 | 0.688 | 1 | 0.475 | 0.275 | 0.968 | > 10 | 0.522 | 1.42 | 0.602 | 2.33 | 0.982 | > 0.128
15 | OCI-M1 (acute myeloid leukaemia, suspension) | 0.947 | > 1 | 0.657 | 0.758 | 0.886 | 3.36 | 0.951 | > 10 | 0.722 | 4.43 | 0.341 | 0.508 | 0.976 | > 0.128
16 | OCUB-M (breast, adherent) | 0.982 | > 1 | 0.724 | – | 0.845 | 2.98 | 0.849 | 6.02 | 0.8 | 8.19 | 0.853 | 12.4 | 0.987 | > 0.128
17 | OMC-1 (cervix, adherent) | 0.794 | 0.483 | 0.963 | > 5 | 0.811 | 2.88 | 0.971 | > 10 | 0.899 | > 20 | 0.951 | > 20 | 0.987 | > 0.128
18 | ONS-76 (medulloblastoma, adherent) | 0.095 | < 0.00391 | 0.561 | 0.466 | 0.53 | 0.388 | 0.939 | > 10 | 0.899 | > 20 | 0.913 | > 20 | 0.964 | > 0.128

By IC50 is meant the dose at which the fit gives 50% viability; a limit (>, <) means that the fit lies beyond the doses tested. AUC, from the same fit, is the share of area under the viability curve across the 256-fold dose range: 1 means no effect, lower means more sensitive. For some assays here: An inferred top dose is not printed in the source and was worked back from the curve model.
